Out of some 340,000 compounds screened, about 6,900 (2%) were called active. No stated cut-off is given here; in the data, active means inhibition above about 30%; inactive means below that, where a call was filed. This is a selection; strong and weak results do not stand in their true shares. Entries without a call were filed so in the source.
Target: D(2) dopamine receptor (Homo sapiens) (UniProt P14416)
Assay: HTS Assay for Allosteric Antagonists of the Human D2 Dopamine Receptor: Primary Screen for Antagonists; further: 0% is about no effect
Conditions: HEK293 TREx D2 cells, calcium flux, dopamine EC80; at 10 µM; stronger effect = higher value
How it was run: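 Compounds are added to dye-loaded, induced HEK293 T-REx cells coupled to calcium release via D2; after a 3 min kinetic read an EC80 dopamine stimulus is given and fluorescence is recorded for 3 more min.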

UniProt P14416, sequence (P14416 whole entry, looked up): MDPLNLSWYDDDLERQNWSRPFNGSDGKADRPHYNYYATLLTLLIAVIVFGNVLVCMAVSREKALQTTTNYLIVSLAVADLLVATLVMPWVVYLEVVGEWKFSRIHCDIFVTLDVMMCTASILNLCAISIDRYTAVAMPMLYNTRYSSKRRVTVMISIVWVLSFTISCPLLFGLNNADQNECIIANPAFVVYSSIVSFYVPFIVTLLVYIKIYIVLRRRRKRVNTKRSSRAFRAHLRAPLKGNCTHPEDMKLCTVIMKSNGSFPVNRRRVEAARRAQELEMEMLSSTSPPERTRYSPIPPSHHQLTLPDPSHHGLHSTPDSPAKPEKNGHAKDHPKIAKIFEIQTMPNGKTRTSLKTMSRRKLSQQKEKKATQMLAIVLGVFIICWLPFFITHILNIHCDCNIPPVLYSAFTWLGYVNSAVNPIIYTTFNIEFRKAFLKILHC

| SMILES | inhibition |
| --- | --- |
| COc1ccc(C(=O)Oc2c(Sc3ccc(C)cc3)c(C)nn2C(C)(C)C)c(OC)c1 | -13.9% |
| Cc1ccc2cc(CCNC(=O)c3c(-c4ccccc4Cl)noc3C)c(=O)[nH]c2c1 | active: 34% |
| C=Cc1ccc(Cn2c(C(=O)O)c(CNCc3cc(OC)ccc3OC)c3ccc(C)cc32)cc1 | 4.15% |
| COCCNC(=O)C(=O)Nc1ccc2nc3n(c(=O)c2c1)CCCCC3 | -0.467% |
| CCC12CN3CC(C)(CN(C1)C3c1c(C)[nH]c3ccccc13)C2=O (stereo not drawn) | 1.38% |
| CCOc1ccc(C2C(C(=O)Nc3ccc(C)cc3C)=C(C)Nc3c(C(=O)Nc4ccc(C)cc4)cnn32)cc1OC (stereo not drawn) | -0.045% |
| COc1ccc(CCNC(=O)C(C)n2nc(C)c3sc4ccccc4c3c2=O)cc1OC (stereo not drawn) | -23.8% |
| COc1ccc(C2NC(=O)N(C)C3=C2C(=O)N(c2ccccc2)C3)cc1 (stereo not drawn) | -7.65% |
| COc1ccc(-c2nc3c(C#N)c[nH]n3c2NC2CCCCC2)cc1 | -0.285% |
| COc1ccc(CN2CCN(C(=O)c3ccco3)CC2)cc1OC | active: 59.8% |
| CCOCCCn1c(=N)c(S(=O)(=O)c2ccccc2)cc2c(=O)n3cc(C)ccc3nc21 | -17.8% |
| CC(=O)c1cccc(NC(=O)c2ccc3c(c2)CCN3S(=O)(=O)c2ccccc2)c1 | -8.24% |
| Cc1ccc(-n2nc(C)c3c(C)c(CCC(=O)NCc4cccc(Cl)c4)c(C)nc32)cc1C | 4.53% |
| Cc1cccc(C(=O)Nc2cc3c(cc2N2CCCCC2)n(C)c(=O)n3C)c1 | 20.7% |
| O=C(CSc1c2c(nc3ccc(Cl)cc13)CCCC2)N1CCCCC1 | -11.6% |
| CCCCC1=CC2=C(c3ccco3)C(=O)C(C)(OC(=O)c3ccc(OC)cc3)C(=O)C2=CN1Cc1ccc2c(c1)OCO2 (stereo not drawn) | active: 33.2% |
| Cc1ccccc1OCC(=O)Nc1ccc(S(=O)(=O)Nc2ncccn2)cc1 | -5.97% |
| Cc1ccc2c(c1)N(CC(=O)NCc1cccc(Cl)c1)C(=O)c1cccnc1O2 | -2.52% |
| COc1ccccc1Cn1c(CNS(=O)(=O)c2c(C)cc(C)cc2C)nc2cccnc21 | -22.1% |
| Cc1ccc(CN2C(=O)C3(SCC(=O)N3c3ccc(C)c(C)c3)c3ccccc32)cc1 (stereo not drawn) | -8.71% |
| COC(=O)C1=C(c2ccccc2)c2ccccc2S(=O)(=O)N1CC(=O)Nc1cc(C)ccc1C | -17.6% |
| CCOC(=O)Cn1nc(N2CCN(c3ccc(F)cc3)CC2)ccc1=O | 5.58% |
| CCOC(=O)c1cccc(NC(=O)CCc2c(C)nc3c4cccnc4nn3c2C)c1 | -10.3% |
| Cc1cccc(N2CCN(c3c(CN4CCCC4)c(=O)oc4ccccc34)CC2)c1C | 16.3% |

| SMILES | inhibition |
| --- | --- |
| Cc1c(C(=O)N2CCOCC2)oc2c1-c1nn(CC(=O)NCc3ccccc3)cc1CC2 | 2.07% |
| CSc1ccc(Nc2nn(-c3ccc(OC(F)(F)F)cc3)nc2C(C)=O)cc1 | 11.5% |
| Cn1c(=O)n(C)c2cc(CNCc3ccc(C(=O)O)cc3)ccc21 | 7.23% |
| CC1(C)C(C=C(Cl)Cl)C1C(=O)N/N=C/c1ccccc1F (stereo not drawn) | active: 59.9% |
| COc1ccc(-c2onc(C)c2C)cc1S(=O)(=O)NC1CCCCC1 | -1.54% |
| Cc1cccc(N2CCN(C(=O)Cn3nc(C)c4sc5ccccc5c4c3=O)CC2C)c1 (stereo not drawn) | -9.06% |
| CCn1cc(C(=O)N(C)Cc2ccccc2)c(=O)c2cc(S(=O)(=O)N3CCCCC3)ccc21 | -5.44% |
| CCOc1ccccc1NC(=O)c1ccc2oc(=O)c(S(=O)(=O)c3ccc(F)cc3)cc2c1 | -7.89% |
| CN(C(=O)CSc1nc2ccc(NC(=O)c3ccc(F)cc3)cc2s1)c1ccccc1 | -1.39% |
| COc1ccc(NC(=O)CCS(=O)(=O)c2cc(Br)cc3c2N(C(C)=O)CC3)c(OC)c1 | 18.6% |
| Cc1ccccc1CCNC(=O)c1cc2ccccn2n1 | 12.8% |
| COc1ccc(Cl)cc1CN1CCN(c2nc(C)cc(C)c2C#N)CC1 | active: 41.3% |
| COc1ccccc1C1C(C(N)=O)=C(C)Nc2nc(SCc3ccccc3F)nn21 (stereo not drawn) | -18.8% |
| Cc1c(C(=O)N(C)C)sc2c1c(=O)n(-c1ccc(Cl)c(Cl)c1)c(=O)n2Cc1ccc(F)cc1 | 23.4% |
| O=C(Nc1cccc(C(=O)OCc2cc(=O)n3nc(C4CC4)sc3n2)c1)c1ccc(F)cc1 | -7.75% |
| CC(=O)c1ccc(S(=O)(=O)N2CCC(Oc3ccc(-n4cnnn4)cc3)CC2)cc1 | -12.4% |
| O=C(CSc1nnc(C2CC2)n1Cc1ccccc1)c1ccc(S(=O)(=O)N2CCOCC2)cc1 | active: 46.5% |
| O=C(Nc1cccc(Cl)c1)N1Cc2ccccc2Oc2ncccc21 | -7.26% |
| CCc1ccc(NC(=O)CN2C(=O)C(=O)c3ccccc32)cc1 | 7.02% |
| COc1ccc(S(=O)(=O)Nc2ccc(O)c(Sc3nc4ccccc4s3)c2)cc1 | 22.7% |
| CCCC(=O)NC1CC(=O)N(c2ccc3c(c2)OCCO3)C1 (stereo not drawn) | -1.16% |
| CC(C)c1ccc(NC(=O)c2cn(C3CCCC3)c(=O)c3c2c2ccccc2n3C)cc1 | 6.55% |
| CCCOc1ccc(NC(=O)CC2C(=O)N(c3cccc(OC)c3)C(=O)N2CCc2ccncc2)cc1 (stereo not drawn) | -2.67% |
| COc1cccc(NC(=O)CSc2cc(C)c3ccccc3n2)c1 | -3.56% |

Reference: PubChem BioAssay AID485344 (National Center for Advancing Translational Sciences (NCATS), 2010)
